From article PMC6919601, “Identification of Plasmodium dipeptidyl aminopeptidase allosteric inhibitors by high throughput screening” (PLoS ONE, 2019) come the findings set out here.

Structures are written as SMILES. Values joined by “and” are separate entries in the source; they are usually repeats but may differ in a detail not shown here. Identical values can stand only once. Among all 110,000 compounds or so, about 230 (0.21%) showed an effect of 50% or more. This is one part of the list.
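Also: 30 min substrate incubation versus DMSO and 10 µM JCP410 controls.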

The target of this assay is DPAP1 (Plasmodium falciparum, UniProt Q8IIJ9). Kind of assay: primary screen, percent inhibition; read by cleavage of a fluorogenic dipeptide substrate; higher = more effect of the substance. Also on record: species or system P. falciparum D10 trophozoite lysates; single well.
DPAP1, sequence (Q8IIJ9 whole entry, looked up): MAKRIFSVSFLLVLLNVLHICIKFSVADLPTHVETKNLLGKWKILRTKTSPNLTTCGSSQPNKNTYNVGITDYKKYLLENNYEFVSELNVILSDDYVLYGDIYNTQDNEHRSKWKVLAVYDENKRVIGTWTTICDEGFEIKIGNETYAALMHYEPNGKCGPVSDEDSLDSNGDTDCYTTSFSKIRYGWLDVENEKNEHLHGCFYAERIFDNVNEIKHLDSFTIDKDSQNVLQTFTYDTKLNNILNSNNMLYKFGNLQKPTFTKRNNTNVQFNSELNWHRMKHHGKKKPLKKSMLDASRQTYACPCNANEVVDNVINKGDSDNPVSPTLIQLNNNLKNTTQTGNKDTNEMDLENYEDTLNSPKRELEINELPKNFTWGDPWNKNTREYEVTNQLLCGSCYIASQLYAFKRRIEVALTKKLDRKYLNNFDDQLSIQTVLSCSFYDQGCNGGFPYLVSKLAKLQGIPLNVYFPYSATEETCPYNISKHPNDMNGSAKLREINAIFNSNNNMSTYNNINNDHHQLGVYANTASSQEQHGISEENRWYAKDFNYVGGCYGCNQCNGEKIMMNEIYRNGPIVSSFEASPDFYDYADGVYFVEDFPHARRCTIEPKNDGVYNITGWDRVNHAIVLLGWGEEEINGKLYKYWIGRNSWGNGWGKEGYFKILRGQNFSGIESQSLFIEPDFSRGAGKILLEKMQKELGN
Regarding `CC(C)N(C(=O)CCCOc1ccc(Cl)cc1Cl)C(C)C`, the “% Inhibition @ 10 uM” value is -8.76%. For `CCOc1ccc(-c2nc(CSCC(=O)N3CCC(N4CCCCC4)CC3)c(C)o2)cc1`, the “% Inhibition @ 10 uM” value is -5.03%. As for `CCOc1ccc(CNC(=O)CN(C)S(=O)(=O)c2ccc3[nH]c4c(c3c2)CCCC4)cc1OC`, the figure is 9.46%; as for `COc1ccc(-c2onc(C)c2C)cc1S(=O)(=O)N(C)C(C)CCc1ccco1` (centres unmarked), -1.23%; as for `CCOC(=O)c1cnc2ccc(OC)cc2c1NC1CCCCC1`, -1.25%. Consider `COc1ccc2c(c1)C(C)=CC(C)(C)N2`, for which the “% Inhibition @ 10 uM” value is 1.13% and -5.94%.

Regarding `CC(NC(=O)Cn1ncc2c3ccccc3n(Cc3ccccc3F)c2c1=O)c1ccccc1` (centres unmarked), the “% Inhibition @ 10 uM” value is 1.8%. As to `CO/C(O)=C1\C(C)=NC2=C(C(=O)CC(c3ccccc3)C2)C1c1cc(Br)c(O)c(OC)c1` (centres unmarked), the “% Inhibition @ 10 uM” value is on record as 2.45%. Then `CC1=[N+]([O-])C(C)(C)CC(C)(C)c2ccccc21`, with 3.16%. Turning to `Cc1[nH]nc(NC(=O)c2ccccn2)c1Br`, the “% Inhibition @ 10 uM” value is listed as -5.03%. Then `COc1ccc(C(=O)N2CCN(Cc3ccc(Cl)cc3)CC2)cc1OC`, with -5.03%.

For `O=C(NCCc1ccccc1)C12CC3CC(CC(C3)C1)C2`, the “% Inhibition @ 10 uM” value was -2.59%. Then `O=C(c1ccco1)N(Cc1ccccc1)C(Cc1ccccc1)c1cccs1` (centres unmarked), with -2.91%. As for `CCCCOc1ccc(C(=O)NC(CC(C)C)C(=O)NCC#N)cc1` (centres unmarked), the figure is -3.04%; as for `O=C(CCCN1C(=O)c2ccccc2Sc2ncccc21)N1CCCCCC1`, 0.436%. Then `Cc1ccc(CNC(=O)Cn2ccc3cc(S(=O)(=O)N4CCC(C)CC4)ccc32)cc1`, with -0.717%. As for `Cc1ccc(-c2cn3c(n2)sc2cc(C(=O)NCCN4CCCC4)ccc23)c(C)c1`, the “% Inhibition @ 10 uM” value was 9.08%.

`O=[N+]([O-])c1ccccc1CN1CCCCCC1`: the “% Inhibition @ 10 uM” value is reported as -5.41%.

On to `CN1CCC(N(C)C2CCN(Cc3ccccc3)CC2)CC1`, for which the “% Inhibition @ 10 uM” value came out at 0.162%. With `CCC1(C)Cc2c(sc3nc(SC)nc(O)c23)CO1` (centres unmarked), the “% Inhibition @ 10 uM” value amounted to 8.9%. As for `O=C(Cn1ccc2cc(S(=O)(=O)N3CCCC3)ccc21)NCc1ccccc1`, the figure is -6.62%; as for `CCOc1ccc(CCNC(=O)CSc2nc(C)c(Cl)c(C)c2C#N)cc1OCC`, 2.7%; as for `COc1ccc(C2CC(c3ccccc3)=NN2c2ccc(N)cc2)cc1` (centres unmarked), 1.92%.

On to `Cn1nc(C(=O)NCCC2=CCCCC2)c2c1-c1ccccc1SC2`, for which the “% Inhibition @ 10 uM” value stood at 22.5%. As for `CC(C)CCn1c(=O)c2ccccc2n2c(CCC(=O)NCC3CCCO3)nnc12` (centres unmarked), the figure is 3.54%; as for `CCCCCCC(C(N)=O)C1=NC(C)(C)Cc2ccccc21` (centres unmarked), -1.5%; as for `Cc1ccc(C2Oc3ccccc3C3=C2C(c2cccs2)n2ncnc2N3)cc1` (centres unmarked), -1.62%. As for `COc1cc(-n2c(C)nc3cc(C(=O)NCc4cccnc4)ccc32)cc(OC)c1OC`, the figure is 0.992%; as for `CCN(CC)S(=O)(=O)c1cc(C(=O)Nc2ccc(Br)cc2)ccc1Br`, -0.294%. As to `CCC(NS(=O)(=O)c1cccc2nsnc12)C12CC3CC(CC(C3)C1)C2` (centres unmarked), the “% Inhibition @ 10 uM” value is on record as -3.04%. `Cc1ccc(NC(=O)c2ccoc2C)c(Br)c1`: the “% Inhibition @ 10 uM” value was determined as 1.57%. For `NC(=O)C1CCCN(Cc2ccc(Cl)cc2)C1` (centres unmarked), the “% Inhibition @ 10 uM” value is recorded as 2.99%. Regarding `CC(=O)N(C)c1ccc(NC(=O)c2ccc(C(C)(C)C)c(Br)c2)cc1`, the “% Inhibition @ 10 uM” value is listed as -1.49%. With `CCn1c2ccccc2c2nnc(NCCOc3cccc(C(F)(F)F)c3)nc21`, the “% Inhibition @ 10 uM” value is reported as -3.1%. Consider `O=S(=O)(NC1CCCCC1)c1ccc(-c2ccccc2)cc1`, for which the “% Inhibition @ 10 uM” value is on record as -0.294%.

With `O=C1Oc2ccccc2N/C1=C\C(=O)c1ccccc1`, the “% Inhibition @ 10 uM” value is reported as 3.96%. Regarding `COCCCNS(=O)(=O)c1csc(C(N)=O)c1`, the “% Inhibition @ 10 uM” value is listed as 6.35%. Regarding `COc1ccc(Cl)cc1C(=O)Nc1ccc(Cl)cc1C(=O)O`, the “% Inhibition @ 10 uM” value stood at 16.5%. Then `CC12CC3CC(C1)CC(CC(=O)O)(C3)C2`, with -1.62%; and `CCOC(=O)C1=C(C)NC(=O)NC1c1ccc(C)cc1` (centres unmarked), with 4.38%; and `CC(C)Oc1ccc(CNC(=O)c2ccc(CS(=O)c3ccc(Cl)cc3)o2)cc1` (centres unmarked), with 0.951%. As for `O=C(COc1cccc2ccccc12)Nc1cccc(O)c1`, the figure is -1.82%; as for `Cc1nn(C(C)C(=O)NC2CCCc3ccccc32)c(=O)c2c1sc1ccccc12` (centres unmarked), -1.33%. As to `CCc1ccc(CNC(=O)c2ccc(CN3CC(=O)N4CCCCC4C3=O)cc2)cc1` (centres unmarked), the “% Inhibition @ 10 uM” value amounted to 1.97%. As for `Cc1ccccc1C(=O)Nc1ccc(S(=O)(=O)N2CCCC2)cc1`, the “% Inhibition @ 10 uM” value is given as -1.28%. Consider `COc1cccc(C(=O)N2CCN(Cc3ccccc3C(F)(F)F)CC2)c1`, for which the “% Inhibition @ 10 uM” value came to 2.3%. Turning to `Cc1ccc(CN(c2ccc(C(=O)N3CCN(C)CC3)cc2)S(C)(=O)=O)cc1`, the “% Inhibition @ 10 uM” value came to 0.83%. Turning to `C=CCn1c(=N)c(C#N)cc2c(=O)n3ccccc3nc21`, the “% Inhibition @ 10 uM” value turned out to be 1.35%. Then `CCCOc1ccc(/C=C2\SC(N3CCOCC3)=NC2=O)cc1`, with -13.1%. With `Cc1cc(C)c(S(=O)(=O)NC2CC(C)(C)NC(C)(C)C2)cc1Br`, the “% Inhibition @ 10 uM” value was -3.25%.

For `CC(=O)c1cccc(NC(=O)COc2ccc(S(=O)(=O)NC3CCCCC3)cc2)c1`, the “% Inhibition @ 10 uM” value was -11.7%.

On to `COc1cc2c(C(=O)c3ccc(Cl)cc3)c(C)oc2c2ccccc12`, for which the “% Inhibition @ 10 uM” value is -3.71%.

Take `Cc1ccc(C2(O)C[N+](c3cc(C)ccc3C)=C3CCCCN32)cc1` (centres unmarked): the “% Inhibition @ 10 uM” value is -1.12%. Then `CC1(C)C(C=C(Cl)Cl)C1C(=O)Nc1ccc(S(N)(=O)=O)cc1` (centres unmarked), with 3.44%; and `COC(=O)C1=C(O)/C(=C\c2ccc(-c3cccc(Cl)c3)o2)N=C1C`, with 2.09%.

Regarding `N#CCNC(=O)[C@@H](Cc1cccnc1)NC(=O)OCc1ccccc1`, the “% Inhibition @ 10 uM” value was -3.14%. As for `O=C(NCc1ccccc1C(F)(F)F)c1ccc2ccccc2c1`, the figure is 1.88%; as for `Clc1ccccc1Sc1nc2ccccc2n2cnnc12`, -2.42%; as for `O=C1C2C3CCC(C3)C2C(=O)N1c1cc(Cl)ccc1Cl` (centres unmarked), -4.43%. Regarding `CC(CCc1ccco1)NC(=O)c1cnc(N2CCCC2)nc1` (centres unmarked), the “% Inhibition @ 10 uM” value is given as -4.97%. As for `C/C(=C\c1ccco1)C1C(C#N)=C(N)Oc2[nH]nc(-c3ccccc3)c21` (centres unmarked), the figure is 8.6%. With `N#Cc1c(NC(=O)C2CC2)sc2c1CCCCC2`, the “% Inhibition @ 10 uM” value is given as 4.57%. Take `O=C(CCc1nnc2ccc(N3CCOCC3)nn12)NCC1CCN(Cc2ccc(F)cc2)CC1`: the “% Inhibition @ 10 uM” value was determined as 0.0147%. As for `Cc1c(C(=O)NCc2ccccn2)oc2ccc(S(=O)(=O)N3CC(C)CC(C)C3)cc12` (centres unmarked), the figure is 1.23%. Then `Cc1cc(S(=O)(=O)N2CCN=C2c2ccccc2)c(Cl)cc1Cl`, with -2.98%; and `O=C(CCC1CCCCC1)Nc1ccc(N2CCOCC2)c2nonc12`, with -0.994%; and `CC1(C)CC(=O)C2=C(C1)N(c1cccc(O)c1)C(=O)CC2c1ccccc1` (centres unmarked), with 1.27%.

In the case of `Cc1c(C(=O)O)oc2cc(O)ccc12`, the “% Inhibition @ 10 uM” value is on record as -6.52%. `COc1ccc(-c2cc(C)no2)cc1S(=O)(=O)NCc1ccc2c(c1)OCO2`: the “% Inhibition @ 10 uM” value is -7.06%. With `CCOc1ccc2nc(C)c(C/C=C(/C)Cl)c(Cl)c2c1`, the “% Inhibition @ 10 uM” value is listed as -5.62%. Consider `COc1cc(CN2CCN(C3CCCCC3)CC2)cc(OC)c1OC`, for which the “% Inhibition @ 10 uM” value was 3.36%. Consider `CCCN(CCC)C(=O)CSc1nc2nc(C)cc(C)n2n1`, for which the “% Inhibition @ 10 uM” value is -5.8%. As for `CC1=C(C(=O)Nc2ccccc2)C(c2cccc(Br)c2)n2ncnc2N1` (centres unmarked), the figure is 0.189%; as for `COc1ccc(CNc2nc(-c3ccc(Cl)cc3)nn2C(=O)C(C)C)cc1`, 3.93%; as for `CC(C)(C)C(/C=C/c1ccc(Cl)cc1Cl)n1nnnc1C(C)(C)N1CCOCC1` (centres unmarked), -0.615%. Then `COc1ccc(C(=O)OCCN2CCN(C3=NS(=O)(=O)c4ccccc43)CC2)cc1`, with 2.17%. Regarding `Nc1ccc(Cl)cc1SCC(=O)O`, the “% Inhibition @ 10 uM” value is reported as 9.4%. As for `CN1CCN(CCC(=O)Nc2ccc(OC(F)(F)Cl)cc2)CC1`, the figure is -1.28%; as for `CCOC(=O)N1CCN(Cc2nc3c(c(=O)n(C)c(=O)n3C)n2Cc2cc(C)ccc2C)CC1`, -4.14%; as for `COCCNC(=O)c1oc2ccc3c(c2c1C)C(=O)CC(C)(c1ccc(Cl)cc1)O3` (centres unmarked), 5.91%. Then `CCC(C)NC(=O)c1ccccc1NC(=O)CN(c1ccc(Br)cc1)S(C)(=O)=O` (centres unmarked), with -16%.

As to `O=S(=O)(Cc1nc2ccccc2[nH]1)Cc1nc2ccccc2[nH]1`, the “% Inhibition @ 10 uM” value was -0.424%. As for `Cc1ccc(NC(=O)c2cccnc2)c(C)c1`, the figure is 0.843%; as for `Cc1c(/C=C2\SC(=O)NC2=O)cc(-c2ccccc2)n1-c1ccccc1`, 2.38%; as for `COc1cc(OC)cc(C(=O)Nc2cc(C)ccc2C)c1`, 2.82%. As for `CC(=O)N1CCc2c(sc3c2c(=O)n(CCc2ccccc2)c(=O)n3Cc2ccccc2)C1`, the figure is 6.66%; as for `CCN(CC)CC(O)COc1cc([N+](=O)[O-])ccc1N1CCCC1` (centres unmarked), 3.54%. As for `O=C(NCc1cc(Br)cc(Br)c1O)c1ccccc1`, the figure is -2.66%; as for `N#CC1=C(N)N(c2nc[nH]n2)C2=C(C(=O)CC(c3ccccc3)C2)C1c1ccc(Br)cc1` (centres unmarked), -2.77%; as for `N#CC1=C2N=C(N)c3c(sc4c3C3CCN4CC3)N2C2=C(C(=O)CCC2)C1c1ccccc1F` (centres unmarked), -4.73%. On to `O=C1NC(c2ccc(OC3CSC3)cc2)Nc2ccccc21` (centres unmarked), for which the “% Inhibition @ 10 uM” value was -0.865%.

On to `COCc1nc2ccccc2n1CC(C)C`, for which the “% Inhibition @ 10 uM” value is listed as -4.07%. With `CN1CCN(C(=O)N[C@@H](Cc2ccccc2)C(=O)N[C@H](/C=C/S(=O)(=O)c2ccccc2)CCc2ccccc2)CC1`, the “% Inhibition @ 10 uM” value was -2.35%. Then `CC(C)(C)C1CCC(N2CCN(C/C=C/c3ccccc3)CC2)CC1` (centres unmarked), with 0.472%; and `O=C(NCc1ccccc1F)Nc1cccc(Cl)c1`, with 0.512%. As for `O=C(N[C@@H](Cc1ccc2ccccc2c1)C(=O)N[C@@H](CCc1ccccc1)C(=O)C[N+](=O)[O-])C1CCNCC1`, the figure is 0.744%; as for `COc1ccc(NC(=O)C2CCC(=O)N2C(=O)OCc2ccccc2)cc1` (centres unmarked), 0.24%; as for `COc1ccc(-c2nc3ccccn3c2C=O)cc1`, -0.703%.
